No constants are given. Whether binding was seen depends on the method and setting. In cells and extracts the contact can be indirect. Some results given as binding are weak or reduced against the parent protein; the word gives no strength. For part of these data: Where a sequence is shown, tags or fusion partners need not be part of it.
Assays:
Experiment in all cases: co-IP; LUMIER: luciferase-based co-immunoprecipitation in HEK293T, 96-well; firefly-V5-14-3-3β with protein A-tagged kinases, luciferase read-out
[1] = target: T1, BUB1(K821M) kinase-dead mutant, protein A fusion (HEK293T) (human) (UniProt O43683)
T1 sequence: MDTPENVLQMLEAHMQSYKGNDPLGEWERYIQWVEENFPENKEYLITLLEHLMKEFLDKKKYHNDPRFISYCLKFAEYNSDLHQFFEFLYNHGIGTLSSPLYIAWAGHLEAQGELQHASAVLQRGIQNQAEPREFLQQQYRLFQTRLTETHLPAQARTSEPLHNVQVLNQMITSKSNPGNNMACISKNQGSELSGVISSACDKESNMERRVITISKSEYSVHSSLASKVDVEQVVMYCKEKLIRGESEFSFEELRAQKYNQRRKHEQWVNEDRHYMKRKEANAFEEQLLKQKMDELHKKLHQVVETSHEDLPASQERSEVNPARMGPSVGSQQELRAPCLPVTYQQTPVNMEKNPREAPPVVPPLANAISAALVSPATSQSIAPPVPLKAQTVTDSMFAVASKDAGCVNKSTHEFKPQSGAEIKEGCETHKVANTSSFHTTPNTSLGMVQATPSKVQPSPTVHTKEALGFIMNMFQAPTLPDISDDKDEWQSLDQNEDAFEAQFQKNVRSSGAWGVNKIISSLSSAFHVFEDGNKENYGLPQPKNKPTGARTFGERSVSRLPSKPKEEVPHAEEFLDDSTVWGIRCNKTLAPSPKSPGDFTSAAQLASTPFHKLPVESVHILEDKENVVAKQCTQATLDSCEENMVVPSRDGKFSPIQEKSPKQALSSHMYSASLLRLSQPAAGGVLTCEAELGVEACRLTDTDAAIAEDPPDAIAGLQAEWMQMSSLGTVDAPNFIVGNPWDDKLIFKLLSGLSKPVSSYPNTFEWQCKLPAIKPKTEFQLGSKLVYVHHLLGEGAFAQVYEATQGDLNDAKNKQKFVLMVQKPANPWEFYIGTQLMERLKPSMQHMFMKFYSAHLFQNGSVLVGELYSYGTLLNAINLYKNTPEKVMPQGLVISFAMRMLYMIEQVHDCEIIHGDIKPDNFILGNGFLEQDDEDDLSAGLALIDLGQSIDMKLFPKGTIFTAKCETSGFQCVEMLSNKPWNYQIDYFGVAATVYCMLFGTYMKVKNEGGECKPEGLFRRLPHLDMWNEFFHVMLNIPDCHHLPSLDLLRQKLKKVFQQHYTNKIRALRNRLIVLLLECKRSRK

Protein sequences, listed by entry. Tags and fused reporters are not part of them. Lines headed by an entry give the natural chain unless they say otherwise; changes in a name come on top.
UniProt Q00537: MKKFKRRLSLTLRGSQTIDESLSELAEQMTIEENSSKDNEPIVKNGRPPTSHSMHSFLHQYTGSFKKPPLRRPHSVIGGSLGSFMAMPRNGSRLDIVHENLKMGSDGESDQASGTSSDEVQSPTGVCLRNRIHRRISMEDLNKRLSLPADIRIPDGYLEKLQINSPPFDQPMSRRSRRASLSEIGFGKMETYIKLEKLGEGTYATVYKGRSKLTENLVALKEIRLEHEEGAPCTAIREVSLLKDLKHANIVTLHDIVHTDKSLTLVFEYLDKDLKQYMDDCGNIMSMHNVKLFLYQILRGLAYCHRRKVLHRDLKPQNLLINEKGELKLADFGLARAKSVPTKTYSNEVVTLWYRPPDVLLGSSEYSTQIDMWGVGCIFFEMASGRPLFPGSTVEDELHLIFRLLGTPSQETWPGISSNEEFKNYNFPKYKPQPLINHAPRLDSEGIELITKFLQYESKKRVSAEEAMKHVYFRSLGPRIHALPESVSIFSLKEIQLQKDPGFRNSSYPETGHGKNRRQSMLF
UniProt Q9HC98: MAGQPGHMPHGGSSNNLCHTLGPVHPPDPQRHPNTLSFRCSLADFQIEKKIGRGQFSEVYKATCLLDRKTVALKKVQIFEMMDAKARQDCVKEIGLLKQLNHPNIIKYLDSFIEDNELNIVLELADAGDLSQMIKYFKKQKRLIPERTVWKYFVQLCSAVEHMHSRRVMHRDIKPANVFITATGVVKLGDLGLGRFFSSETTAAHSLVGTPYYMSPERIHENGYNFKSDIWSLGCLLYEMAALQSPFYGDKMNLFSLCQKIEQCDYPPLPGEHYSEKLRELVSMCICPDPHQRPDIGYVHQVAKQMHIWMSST
UniProt Q9P286: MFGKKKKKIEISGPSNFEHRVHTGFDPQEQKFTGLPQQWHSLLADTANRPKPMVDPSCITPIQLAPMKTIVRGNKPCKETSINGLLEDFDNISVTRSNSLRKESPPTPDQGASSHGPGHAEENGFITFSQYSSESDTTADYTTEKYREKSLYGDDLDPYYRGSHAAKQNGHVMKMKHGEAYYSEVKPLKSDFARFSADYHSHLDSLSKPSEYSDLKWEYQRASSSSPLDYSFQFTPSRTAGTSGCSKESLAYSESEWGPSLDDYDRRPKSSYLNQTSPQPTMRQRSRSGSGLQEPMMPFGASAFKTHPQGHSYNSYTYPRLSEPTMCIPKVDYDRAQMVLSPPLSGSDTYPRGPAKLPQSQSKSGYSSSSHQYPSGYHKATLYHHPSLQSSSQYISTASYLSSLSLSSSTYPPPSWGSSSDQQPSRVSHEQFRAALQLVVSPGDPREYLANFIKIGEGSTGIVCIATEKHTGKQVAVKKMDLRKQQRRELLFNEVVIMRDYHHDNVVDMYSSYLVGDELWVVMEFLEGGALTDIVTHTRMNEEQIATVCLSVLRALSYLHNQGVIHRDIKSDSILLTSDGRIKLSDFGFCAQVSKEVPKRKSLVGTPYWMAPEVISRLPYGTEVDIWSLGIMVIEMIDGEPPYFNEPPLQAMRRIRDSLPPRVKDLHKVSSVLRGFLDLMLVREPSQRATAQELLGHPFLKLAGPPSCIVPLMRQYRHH
UniProt P31946: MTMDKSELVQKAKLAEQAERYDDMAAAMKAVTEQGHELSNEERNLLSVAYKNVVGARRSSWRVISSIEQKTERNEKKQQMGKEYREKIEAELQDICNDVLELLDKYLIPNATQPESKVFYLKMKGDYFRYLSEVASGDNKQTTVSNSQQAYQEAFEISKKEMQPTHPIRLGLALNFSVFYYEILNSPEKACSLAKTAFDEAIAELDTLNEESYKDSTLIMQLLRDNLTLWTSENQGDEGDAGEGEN

[2] = target: CDK17, wild type, protein A fusion (HEK293T) (human) (UniProt Q00537)
[3] = target: NEK6(K74M&K75M) kinase-dead mutant, protein A fusion (HEK293T) (human) (UniProt Q9HC98)
[4] = target: BUB1, wild type, protein A fusion (HEK293T) (human) (UniProt O43683)
[5] = target: PAK5, wild type, protein A fusion (HEK293T) (human) (UniProt Q9P286)
[6] = target: NEK6, wild type, protein A fusion (HEK293T) (human) (UniProt Q9HC98)

binding [1]: no binding
binding [2]: binds
binding [3]: no binding
binding [4]: no binding
binding [5]: binds
binding [6]: no binding
Substance: firefly-V5 fusion 14-3-3β (HEK293T) (from UniProt P31946 1-246)

From paper PMC8883442
